Laboratory results: PubChem BioAssay AID1963319 (National Center for Advancing Translational Sciences (NCATS), 2024)
The campaign covered roughly 1,300 compounds. About 120 (9.2%) were called active. The inconclusive results got no clear call from the source; some entries with a clear call stand among them for comparison. Calls come from the whole dose curve; as a rule, active = well fitted activation curve with a large enough effect; inconclusive = small, poorly fitted or top-dose-only effect; inactive = flat fitted curve, though single readings scatter. Potencies of inconclusive entries are doubtful fits and often do not repeat.

The compounds below were run against Luciferin 4-monooxygenase (Photinus pyralis) (UniProt P08659) (assay: Firefly luciferase (FLuc-C-HiBiT) SDR gain of signal screen - plus ATP). Details: purified FLuc-C-HiBiT + ATP, HiBiT complementation luminescence; series mostly up to 32.7 µM; activation (gain of signal): at the top concentration.
UniProt P08659, sequence (P08659 whole entry, looked up): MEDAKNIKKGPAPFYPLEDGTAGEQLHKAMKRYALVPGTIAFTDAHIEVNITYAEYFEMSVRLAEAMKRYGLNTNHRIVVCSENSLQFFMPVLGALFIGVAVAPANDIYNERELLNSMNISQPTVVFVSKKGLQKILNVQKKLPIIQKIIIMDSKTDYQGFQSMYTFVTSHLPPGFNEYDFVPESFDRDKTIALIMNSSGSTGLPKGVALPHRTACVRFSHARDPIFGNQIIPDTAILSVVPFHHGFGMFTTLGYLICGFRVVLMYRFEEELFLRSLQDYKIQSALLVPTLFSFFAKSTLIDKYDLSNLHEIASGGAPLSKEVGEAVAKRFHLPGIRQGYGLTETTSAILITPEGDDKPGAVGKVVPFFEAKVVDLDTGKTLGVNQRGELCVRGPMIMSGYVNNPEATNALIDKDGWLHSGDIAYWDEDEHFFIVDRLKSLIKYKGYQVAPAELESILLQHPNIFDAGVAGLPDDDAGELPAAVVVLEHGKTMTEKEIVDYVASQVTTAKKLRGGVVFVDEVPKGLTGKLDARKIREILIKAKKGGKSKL
Method in brief: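 FLuc-C-HiBiT at 10 nM final with 10 uM ATP, incubated with compounds >30 min at room temperature. Nano-Glo HiBiT reagent then added; after 5-10 min, complementation luminescence read on CCD imager as gain of signal.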
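Note: signal reports ligand binding via conformational change of the enzyme rather than luciferase catalysis; nearly all actives have a fitted effect of over 55% in size.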
Potency is the fitted concentration of half-maximal effect; tags give direction and shape of the fitted curve.
Throughout, for activation (gain of signal): % of control where 0% means no effect.

Compound	activation (gain of signal)	Potency
Nc1nc2c([nH]c(=O)n2C2CC(O)C(CO)O2)c(=O)[nH]1 (centres undefined)	inactive: 10.8%	
O=C(Nc1cccc(-c2ccc(N3CCOCC3)nn2)c1)Nc1cc(F)ccc1F		inconclusive: 4.42 µM [activator, partial curve, poor fit]
CC(=O)N1CCNc2cc(-c3ccccc3F)ncc2C1	inactive: 12.1% [at 65.7 µM]	
Cc1ccc(-c2cc3c(=O)n(CCNC(=O)c4cccc(C#N)c4)ccn3n2)c(C)c1		inconclusive: 6.24 µM [activator, partial curve, poor fit]
CN(Cc1nccs1)c1ccc(-c2nc(-c3ccccc3F)no2)cn1	inactive: 17.3%	
COc1ccc(C(=O)Nc2ccccc2-c2nc3ccccc3s2)c(OC)c1	inactive: 7.44%	
O=C(Nc1cc(F)cc(F)c1)Nc1cccc(-c2ccc(N3CCOCC3)nn2)c1		inconclusive: 12.4 µM [activator, partial curve, poor fit]
O=C(Nc1cccc(Br)c1)c1cc(-c2ccc3c(c2)OCCO3)on1		inconclusive: 11.1 µM [activator, partial curve]
Clc1ccccc1Cc1cn2cc(-c3ccccc3)nc2s1		inconclusive: 1.76 µM [activator, full curve]
Cc1ccc(C2Cn3nnc(C(=O)N4CCC(C(=O)NCc5ccccn5)CC4)c3CO2)cc1 (centres undefined)		inconclusive: 5.56 µM [activator, full curve, poor fit]
CC(Oc1ccccc1F)C(=O)Nc1ccc(-c2nc3ccccc3s2)cc1 (centres undefined)	inactive: 10.8%	
Cc1ccc(-c2cc3c(=O)n(CCNC(=O)c4ccc(C)s4)ccn3n2)c(C)c1		inconclusive: 14 µM [activator, partial curve, poor fit]
CCOc1ncccc1C(=O)OCC(=O)Nc1ccc(-c2nc3ccc(C)cc3s2)cc1	inactive: 19.2% [at 65.7 µM]	
Cn1cc(-c2cnc(Nc3ccc(N4CCOCC4)cc3)c3c2CCO3)cn1		inconclusive: 22.7 µM [activator, partial curve]
O=C(NCc1ccc(F)cc1)Nc1cccc(-c2ccc(N3CCOCC3)nn2)c1		inconclusive: 9.89 µM [activator, partial curve]
O=C(Nc1ccc(F)c(Cl)c1)C1CCN(C(=O)c2ncn3c2COC(c2ccccc2)C3)CC1 (centres undefined)		active: 0.7 µM
Cc1ccc(OCc2nc(C3CN(C(=O)c4n[nH]c5ccccc45)C3)no2)cc1		inconclusive: 11.1 µM [activator, partial curve, poor fit]
CC1CCCN(c2ncnc3c2cnn3-c2cccc(Cl)c2)C1 (centres undefined)		inconclusive: 1.97 µM [activator, full curve]
Cc1ccc(NC(=O)Nc2ccc(C)n(CC(=O)NC(C)(C)C)c2=O)cc1		inconclusive: 14 µM [activator, partial curve]
Cc1cc(C)cc(NC(=O)C2CCN(C(=O)c3ncn4c3COC(c3ccccc3)C4)CC2)c1 (centres undefined)		inconclusive: 2.79 µM [activator, full curve]
COc1ccc(NC(=O)N2CCc3c(C(=O)Nc4ccc5c(c4)OCO5)cccc32)cc1		active: 1.24 µM
O=C(CSc1ccc(F)cc1)Nc1ccccc1-c1nc2ccccc2s1	inactive: 8.51%	
CCn1cc(-c2ccc(C)cc2)cc1C(=O)O	inactive: 10.1%	

Compound	activation (gain of signal)	Potency
O=C(O)c1cccc2c1CCN2C(=O)c1ccc(F)cc1		active: 1.24 µM
Cc1cccc(-n2ncc3c(N4CCCCCC4)ncnc32)c1		inconclusive: 2.48 µM [activator, full curve]
C[C@H](C(=O)NCCN1CCOCC1)C1CC[C@@]2(C)Cc3sc(-c4ccccc4)nc3[C@@H](C)[C@@H]2[C@H]1O (some centres undefined)		inconclusive: 1.4 µM [activator, full curve]
O=C1CC2(CCN(CC3CC3)CC2)Oc2ccccc21		inconclusive: 7.18 µM [activator, full curve, poor fit]
O=C(Nc1ccc([C@H]2OCC(=O)N(C3CCOCC3)[C@@H]2CO)cc1)c1ccc(C(F)(F)F)cc1	inactive: 14.6%	
CCc1ccc2nc(N3CCC(C(=O)O)CC3)sc2c1		active: 0.07 µM
CC1CCN(c2ncnc3c2cnn3-c2ccccc2)CC1		inconclusive: 12.4 µM [activator, partial curve, poor fit]
O=C(NCc1ccccc1Cl)C1CCN(C(=O)c2ncn3c2COC(c2ccccc2)C3)CC1 (centres undefined)		inconclusive: 11.1 µM [activator, partial curve]
COc1ccc2cc(C3CN(C(=O)CNC(=O)C(C)C)CCO3)ccc2c1 (centres undefined)		inconclusive: 12.4 µM [activator, partial curve, poor fit]
CCC(=O)N1CCc2ccc(C(=O)NC3CCCCC3)cc21		inconclusive: 11.1 µM [activator, partial curve]
Cc1ccc2nc(-c3ccc(N)cc3)sc2c1S(=O)(=O)O		inconclusive: 12.4 µM [activator, partial curve]
COc1ccc2cc(-c3nc4ccc(C(=O)O)cc4[nH]3)c(=O)oc2c1		active: 0.0197 µM
COc1ccc(-c2ncc3c(n2)OCCN(CC2CC2)C3=O)cc1		inconclusive: 18 µM [activator, partial curve]
CC(=O)c1ccc(NC(=O)CCc2c(C)nc3cc(-c4ccc(Cl)cc4)nn3c2C)cc1		inconclusive: 9.89 µM [activator, partial curve]
C[C@@H]1C(=O)O[C@H]2[C@H]1CC[C@@]1(C)Cc3sc(NC(=O)c4ccncc4)nc3[C@@H](C)[C@H]21		inconclusive: 5.08 µM [activator, partial curve, poor fit]
CCOc1ccccc1C(=O)Nc1nc2c(s1)CC(C)CC2 (centres undefined)	inactive: 8.44%	
Fc1ccccc1Nc1nc(-c2ccccc2)no1		inconclusive: 9.89 µM [activator, partial curve]
CCc1cccc(NC(=O)C2CCN(C(=O)c3ncn4c3COC(c3ccccc3)C4)CC2)c1 (centres undefined)		active: 1.24 µM
Cc1c(NC(=O)C(C)(C)C)cccc1-c1nc2ccccc2s1		inconclusive: 9.89 µM [activator, partial curve, poor fit]
CNC(=O)c1cccc(-c2cnc(NC(=O)Cc3ccccc3)c3c2CCO3)c1		inconclusive: 14.3 µM [activator, partial curve]
Cc1ccc(NC(=O)C2CCN(C(=O)c3ncn4c3COC(c3ccccc3)C4)CC2)cc1 (centres undefined)		active: 1.57 µM
CN1c2cc(C(=O)Nc3cc(F)ccc3F)ccc2C(=O)N2CCCCCC21 (centres undefined)		inconclusive: 6.24 µM [activator, partial curve, poor fit]
COCCN1CCC2(C1)CN(C)c1ccc(C(=O)Nc3ccn(C)n3)cc12 (centres undefined)		inconclusive: 18 µM [activator, partial curve]

Compound	activation (gain of signal)	Potency
COCCN1CCNc2cc(-c3cccc(OC)c3)ncc2C1	inactive: 14.5% [at 49.3 µM]	
Cc1ccc(-n2ncc3c(N4CCCCC4)ncnc32)cc1		active: 1.11 µM
O=C(O)c1ccccc1-c1noc(-c2ccccc2F)n1		inconclusive: 19.7 µM [activator, partial curve, poor fit]
CCc1ccccc1NC(=O)c1cc2c(=O)[nH]c(C)cn2n1	inactive: 13%	
O=C(NCCn1cccc1-c1nc(-c2ccc3c(c2)OCO3)no1)c1ccc(Cl)cc1	inactive: 12.1%	
O=C(O)CCSc1nnc(-c2ccc(Cl)cc2Cl)o1		active: 0.7 µM
COc1ccc(NC(=O)N2CCc3c(C(=O)NCc4ccncc4)cccc32)cc1		active: 0.881 µM
Cc1cn2c(=O)cc(COC(=O)c3ccccc3F)nc2s1		inconclusive: 4.95 µM [activator, partial curve, poor fit]
CCc1ccc(C(=O)Nc2ccc3c(N4CCOCC4)ncnc3c2)cc1		inconclusive: 11.1 µM [activator, partial curve, poor fit]
COc1cccc(-c2csc(CN3CCCC(C)(NC(C)=O)C3)c2)c1 (centres undefined)	inactive: 15.7% [at 49.3 µM]	
COc1ccc(CC(=O)Nc2ccc(-c3nc4ccccc4s3)c(C)c2)cc1	inactive: 8.15%	
CC(=O)NCCNC(=O)c1ccc2c(=O)n(CCc3ccccc3)c(=O)[nH]c2c1	inactive: 13.6%	
Fc1ccc(Cc2cn3cc(-c4ccc(F)cc4)nc3s2)cc1		inconclusive: 7 µM [activator, partial curve]
Cc1cccc(OCC(=O)Nc2cccc(-c3nc4ccccc4s3)c2)c1	inactive: 9.67%	
COC(=O)c1ccccc1NC(=O)CCc1c(C)nc2cc(-c3ccc(Cl)cc3)nn2c1C		inconclusive: 1.97 µM [activator, full curve]
Cc1ccc(/C=C/c2nc3ccccc3n2S(=O)(=O)c2ccc(Br)cc2)cc1		inconclusive: 7 µM [activator, partial curve]
CSc1ccc(/C=C/c2nc3ccccc3n2S(=O)(=O)c2ccc(F)c(C)c2)cc1		inconclusive: 2.79 µM [activator, full curve]
O=C(O)c1cccc(-c2noc(-c3ccccc3F)n2)c1		active: 0.005 µM
O=C(O)c1ccc(-c2noc(-c3ccccc3F)n2)cc1		active: 0.248 µM
Cc1ccc(NC(=O)Nc2ccccc2)c(=O)n1CC(=O)NCC1CCCO1 (centres undefined)		inconclusive: 12.4 µM [activator, partial curve, poor fit]
O=C(Nc1ccc(F)c(F)c1)C1CCN(C(=O)c2ncn3c2COC(c2ccccc2)C3)CC1 (centres undefined)		active: 0.556 µM
COc1ccc(C(=O)N2CCc3ccc(C(=O)Nc4ccc5c(c4)OCCO5)cc32)cc1		inconclusive: 9.89 µM [activator, partial curve, poor fit]
COc1cccc2cc(-c3nnc(-c4ccc(Cl)cc4)o3)c(=O)oc12		inconclusive: 1.97 µM [activator, full curve, poor fit]
